{
  "source": "patent US11207320B2",
  "about": "“Compositions and methods for cancer expressing PDE3A or SLFN12” (The Broad Institute, Inc., priority 2015, dated 2021)",
  "tested_on": "766 cancer cell lines",
  "experiment": "Large-scale cell-line viability measurements (766 cancer cell lines, 72 h, AUC)",
  "type": "cell-based, human",
  "procedure": "Cell lines were treated for 72 hours with concentrations ranging from 66.4 μM-2 nM in 2-fold step dilutions.\nTo characterize cellular sensitivity to DNMDP further, 766 genomically characterized cancer cell lines were screened for DMNDP sensitivity at concentrations ranging from 66.4 μM to 2 nM in 2-fold dilution steps for 72 hours. From these cell lines, 22 cell lines were categorized as sensitive with a robust Z-score lower than −4, which represented multiple lineages including multiple melanoma cell lines, amongst others (Table 1).\nThe sensitivity of […] cancer cell lines (CCLs) was measured drawn from 23 different lineages to DNMDP. Each cell line was plated in its preferred media in white opaque 1536-plates at a density of 500 cells/well. After incubating overnight, DNMDP was added by acoustic transfer at 16 concentrations ranging from 66.4 μM-2 nM in 2-fold steps in duplicate (Labcyte Echo 555, Labcyte Inc., Sunnyvale, Calif.). After 72 hours treatment, cellular ATP levels were measured as a surrogate for viability (CELLTITERGLO®, Promega Corporation, Madison, Wis.) according to manufacturer's protocols using a ViewLux Microplate Imager (PerkinElmer, Waltham, Mass.) and normalized to background (media-only) and vehicle (DMSO)-treated control wells.\nConcentration response curves were fit using nonlinear fits to 2- or 3-parameter sigmoid functions through all 16 concentrations with the low-concentration asymptote set to the DMSO-normalized value, and an optimal 8-point dose curve spanning the range of compound-sensitivity was identified. The area under the 8-point dose curve (AUC) was computed by numeric integration as a metric for sensitivity for further analysis. Similar sensitivity measurements have been obtained for a collection of 480 other compounds, enabling analyses that identify cell lines responding uniquely to DNMDP (see Broad Institute Cancer Therapeutics Response Portal, a dataset to identify comprehensively relationships between genetic and lineage features of human cancer cell lines and small-molecule sensitivities for complete list of compounds).",
  "key": {"[1]": {"settings": "cell line RPMI7951, SKIN, 72 hours"}, "[2]": {"settings": "cell line RPMI8226 (HAEMATOPOIETIC AND LYMPHOID TISSUE)"}, "[3]": {"settings": "cell line RT112 (URINARY TRACT)"}, "[4]": {"settings": "cell line S117, SOFT TISSUE, 72 hours"}, "[5]": {"settings": "cell line SAOS2, BONE, 72 hours"}, "[6]": {"settings": "cell line SCC25 (UPPER AERODIGESTIVE TRACT)"}, "[7]": {"settings": "cell line SF126 (CENTRAL NERVOUS SYSTEM)"}, "[8]": {"settings": "cell line SIGM5, HAEMATOPOIETIC AND LYMPHOID TISSUE, 72 hours"}, "[9]": {"settings": "cell line SIMA, AUTONOMIC GANGLIA, 72 hours"}, "[10]": {"settings": "cell line SKBR3, BREAST, 72 hours"}, "[11]": {"settings": "cell line SKM1, HAEMATOPOIETIC AND LYMPHOID TISSUE, 72 hours"}, "[12]": {"settings": "cell line SKMEL28, SKIN, 72 hours"}, "[13]": {"settings": "cell line SKNAS, AUTONOMIC GANGLIA, 72 hours"}, "[14]": {"settings": "cell line SKNDZ (AUTONOMIC GANGLIA)"}, "[15]": {"settings": "cell line SNU46, UPPER AERODIGESTIVE TRACT, 72 hours"}, "[16]": {"settings": "cell line SNU61, LARGE INTESTINE, 72 hours"}, "[17]": {"settings": "cell line SNU216, STOMACH, 72 hours"}, "[18]": {"settings": "cell line SNU283 (LARGE INTESTINE)"}, "[19]": {"settings": "cell line SNU308 (BILIARY TRACT)"}, "[20]": {"settings": "cell line SNU407 (LARGE INTESTINE)"}, "[21]": {"settings": "cell line SNU466, CENTRAL NERVOUS SYSTEM, 72 hours"}, "[22]": {"settings": "cell line SNU475, LIVER, 72 hours"}, "[23]": {"settings": "cell line SNU489, CENTRAL NERVOUS SYSTEM, 72 hours"}, "[24]": {"settings": "cell line SNU601, STOMACH, 72 hours"}, "[25]": {"settings": "cell line SNU626 (CENTRAL NERVOUS SYSTEM)"}},
  "note": "The source gives many values for each of these; only a part stands here.",
  "data": [
    {"smiles": "CCN(CC)c1ccc(C2=NNC(=O)CC2C)cc1[N+](=O)[O-]", "note": "(centres unmarked) [DNMDP, 6-(4-(diethylamino)-3-nitrophenyl)-5-methyl-4,5-dihydropyridazin-3(2H)-one]", "values": [
      {"measurement": "DNMDP AUC", "setting": "[1]", "result": 7.375},
      {"measurement": "Robust Z-score", "setting": "[1]", "result": 0.7771},
      {"measurement": "DNMDP AUC", "setting": "[2]", "result": 6.8256},
      {"measurement": "Robust Z-score", "setting": "[2]", "result": 0.2004},
      {"measurement": "DNMDP AUC", "setting": "[3]", "result": 6.8313},
      {"measurement": "Robust Z-score", "setting": "[3]", "result": 0.2064},
      {"measurement": "DNMDP AUC", "setting": "[4]", "result": 8.2668},
      {"measurement": "Robust Z-score", "setting": "[4]", "result": 1.713},
      {"measurement": "DNMDP AUC", "setting": "[5]", "result": 7.1406},
      {"measurement": "Robust Z-score", "setting": "[5]", "result": 0.5311},
      {"measurement": "DNMDP AUC", "setting": "cell line SBC5 (LUNG)", "result": 6.8494},
      {"measurement": "Robust Z-score", "setting": "cell line SBC5 (LUNG)", "result": 0.2254},
      {"measurement": "DNMDP AUC", "setting": "[6]", "result": 6.5527},
      {"measurement": "Robust Z-score", "setting": "[6]", "result": "−0.08602"},
      {"measurement": "DNMDP AUC", "setting": "[7]", "result": 6.7933},
      {"measurement": "Robust Z-score", "setting": "[7]", "result": 0.1665},
      {"measurement": "DNMDP AUC", "setting": "cell line SH10TC (STOMACH)", "result": 6.5448},
      {"measurement": "Robust Z-score", "setting": "cell line SH10TC (STOMACH)", "result": "−0.09431"},
      {"measurement": "DNMDP AUC", "setting": "[8]", "result": 7.1077},
      {"measurement": "Robust Z-score", "setting": "[8]", "result": 0.4965},
      {"measurement": "DNMDP AUC", "setting": "[9]", "result": 7.6032},
      {"measurement": "Robust Z-score", "setting": "[9]", "result": 1.017},
      {"measurement": "DNMDP AUC", "setting": "cell line SJSA1 (BONE)", "result": 6.6844},
      {"measurement": "Robust Z-score", "setting": "cell line SJSA1 (BONE)", "result": 0.05222},
      {"measurement": "DNMDP AUC", "setting": "[10]", "result": 7.5494},
      {"measurement": "Robust Z-score", "setting": "[10]", "result": 0.9602},
      {"measurement": "DNMDP AUC", "setting": "cell line SKES1 (BONE)", "result": 6.9576},
      {"measurement": "Robust Z-score", "setting": "cell line SKES1 (BONE)", "result": 0.339},
      {"measurement": "DNMDP AUC", "setting": "cell line SKHEP1 (LIVER)", "result": 6.5773},
      {"measurement": "Robust Z-score", "setting": "cell line SKHEP1 (LIVER)", "result": "−0.0602"},
      {"measurement": "DNMDP AUC", "setting": "[11]", "result": 7.5234},
      {"measurement": "Robust Z-score", "setting": "[11]", "result": 0.9329},
      {"measurement": "DNMDP AUC", "setting": "cell line SKMEL1 (SKIN)", "result": 6.742},
      {"measurement": "Robust Z-score", "setting": "cell line SKMEL1 (SKIN)", "result": 0.1127},
      {"measurement": "DNMDP AUC", "setting": "cell line SKMEL2 (SKIN)", "result": 6.8019},
      {"measurement": "Robust Z-score", "setting": "cell line SKMEL2 (SKIN)", "result": 0.1756},
      {"measurement": "DNMDP AUC", "setting": "cell line SKMEL24 (SKIN)", "result": 6.6712},
      {"measurement": "Robust Z-score", "setting": "cell line SKMEL24 (SKIN)", "result": 0.03836},
      {"measurement": "DNMDP AUC", "setting": "[12]", "result": 7.1392},
      {"measurement": "Robust Z-score", "setting": "[12]", "result": 0.5296},
      {"measurement": "DNMDP AUC", "setting": "cell line SKMEL30 (SKIN)", "result": 7.079},
      {"measurement": "Robust Z-score", "setting": "cell line SKMEL30 (SKIN)", "result": 0.4664},
      {"measurement": "DNMDP AUC", "setting": "cell line SKMEL31 (SKIN)", "result": 6.5659},
      {"measurement": "Robust Z-score", "setting": "cell line SKMEL31 (SKIN)", "result": "−0.07216"},
      {"measurement": "DNMDP AUC", "setting": "cell line SKMES1 (LUNG)", "result": 6.5724},
      {"measurement": "Robust Z-score", "setting": "cell line SKMES1 (LUNG)", "result": "−0.06534"},
      {"measurement": "DNMDP AUC", "setting": "[13]", "result": 7.145},
      {"measurement": "Robust Z-score", "setting": "[13]", "result": 0.5357},
      {"measurement": "DNMDP AUC", "setting": "[14]", "result": 6.7192},
      {"measurement": "Robust Z-score", "setting": "[14]", "result": 0.08875},
      {"measurement": "DNMDP AUC", "setting": "cell line SKNMC (BONE)", "result": 6.7533},
      {"measurement": "Robust Z-score", "setting": "cell line SKNMC (BONE)", "result": 0.1245},
      {"measurement": "DNMDP AUC", "setting": "cell line SNGM (ENDOMETRIUM)", "result": 6.6038},
      {"measurement": "Robust Z-score", "setting": "cell line SNGM (ENDOMETRIUM)", "result": "−0.03238"},
      {"measurement": "DNMDP AUC", "setting": "[15]", "result": 7.8035},
      {"measurement": "Robust Z-score", "setting": "[15]", "result": 1.227},
      {"measurement": "DNMDP AUC", "setting": "[16]", "result": 7.6228},
      {"measurement": "Robust Z-score", "setting": "[16]", "result": 1.037},
      {"measurement": "DNMDP AUC", "setting": "cell line SNU182 (LIVER)", "result": 7.0252},
      {"measurement": "Robust Z-score", "setting": "cell line SNU182 (LIVER)", "result": 0.4099},
      {"measurement": "DNMDP AUC", "setting": "cell line SNU213 (PANCREAS)", "result": 6.9923},
      {"measurement": "Robust Z-score", "setting": "cell line SNU213 (PANCREAS)", "result": 0.3754},
      {"measurement": "DNMDP AUC", "setting": "[17]", "result": 7.6319},
      {"measurement": "Robust Z-score", "setting": "[17]", "result": 1.047},
      {"measurement": "DNMDP AUC", "setting": "[18]", "result": 6.6315},
      {"measurement": "Robust Z-score", "setting": "[18]", "result": "−0.003306"},
      {"measurement": "DNMDP AUC", "setting": "[19]", "result": 6.8314},
      {"measurement": "Robust Z-score", "setting": "[19]", "result": 0.2065},
      {"measurement": "DNMDP AUC", "setting": "[20]", "result": 6.8062},
      {"measurement": "Robust Z-score", "setting": "[20]", "result": 0.1801},
      {"measurement": "DNMDP AUC", "setting": "cell line SNU410 (PANCREAS)", "result": 7.0646},
      {"measurement": "Robust Z-score", "setting": "cell line SNU410 (PANCREAS)", "result": 0.4513},
      {"measurement": "DNMDP AUC", "setting": "[21]", "result": 7.7589},
      {"measurement": "Robust Z-score", "setting": "[21]", "result": 1.18},
      {"measurement": "DNMDP AUC", "setting": "[22]", "result": 7.4091},
      {"measurement": "Robust Z-score", "setting": "[22]", "result": 0.8129},
      {"measurement": "DNMDP AUC", "setting": "[23]", "result": 7.2056},
      {"measurement": "Robust Z-score", "setting": "[23]", "result": 0.5993},
      {"measurement": "DNMDP AUC", "setting": "[24]", "result": 7.3091},
      {"measurement": "Robust Z-score", "setting": "[24]", "result": 0.7079},
      {"measurement": "DNMDP AUC", "setting": "[25]", "result": 6.8886},
      {"measurement": "Robust Z-score", "setting": "[25]", "result": 0.2666},
      {"measurement": "DNMDP AUC", "setting": "cell line SNU668 (STOMACH)", "result": 7.0126}
    ]}
  ]
}
